Whole data set: some 33,000 sequences, median “E-score (-0.5 to 0.5)” near -0.013, cut for the highest 2% near 0.3. The list shows a part of the results.
The sequences below were run against T1, Msn1 (UniProt P22148) (assay: PBM E-score (8-mer binding enrichment) (E-score (-0.5 to 0.5)); higher = stronger / more preferred TF binding; most listed sequences are background and not binding sites). Settings: protein concentration: 200 nM; construct: GST-full length.
T1 sequence: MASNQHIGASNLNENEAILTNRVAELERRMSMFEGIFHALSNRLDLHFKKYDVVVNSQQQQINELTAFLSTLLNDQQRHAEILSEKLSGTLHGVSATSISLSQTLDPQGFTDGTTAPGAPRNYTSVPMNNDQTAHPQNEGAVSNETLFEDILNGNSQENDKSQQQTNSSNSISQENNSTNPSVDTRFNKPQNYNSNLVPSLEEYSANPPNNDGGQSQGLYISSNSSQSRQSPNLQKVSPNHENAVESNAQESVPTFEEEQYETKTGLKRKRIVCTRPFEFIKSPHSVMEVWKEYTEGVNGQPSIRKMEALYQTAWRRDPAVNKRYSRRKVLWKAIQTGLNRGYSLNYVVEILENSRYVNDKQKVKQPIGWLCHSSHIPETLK
Method: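 Universal 'all 10-mer' protein binding microarrays (Agilent AMADID 015681) probed with GST-tagged S. cerevisiae TFs (full-length or DBD) made by in vitro transcription/translation (PURExpress), about 100-200 nM. Bound TF was detected with fluorescent anti-GST. Each ungapped 8-mer (which stands for itself and its reverse complement) is scored by the PBM enrichment score (E-score), a modified Wilcoxon-Mann-Whitney statistic from -0.5 to +0.5, computed with the Universal PBM Analysis Suite. Scale: above 0.35 generally sequence-specific binding.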

Row | Sequence | PBM E-score
1 | AATCTAGT | 0.0987
2 | AGGGGGAA | -0.304
3 | CTCAGCAG | -0.189
4 | CGTTCACA | -0.0515
5 | CCGAACAA | 0.185
6 | AAGGTTGA | 0.0575
7 | CACCAGGA | 0.0365
8 | TACGGTGA | 0.059
9 | CGCCCTCC | -0.372
10 | AGCGGGCC | -0.14
11 | GCCAGGGC | -0.166
12 | CTCTGCCC | 0.0128
13 | AAGGACTA | -0.00885
14 | GTACGCGA | -0.032
15 | GCTATCAC | -0.0524
16 | TGGCCACA | -0.0107
17 | ATATCCGG | 0.11
18 | CCTGGTTA | -0.132
19 | ACAAATTG | 0.301
20 | TCTCAGCA | -0.0811
21 | TATTCGGA | 0.223
22 | CGACCGAC | 0.0415
23 | TGGGCGAA | -0.0188
24 | GAACCGGA | 0.0451

Row | Sequence | PBM E-score
25 | ATCCGTTA | 0.282
26 | AGTAATCA | -0.0522
27 | AGGATGCA | -0.0883
28 | GAACGCAC | -0.0524
29 | ACGTCCTA | 0.354
30 | CAAAGACA | 0.361
31 | CCACTCGC | -0.106
32 | CAGTCGGG | -0.0537
33 | TACGCACA | 0.0572
34 | CGCTGGGC | -0.0718
35 | ACAAATAA | 0.307
36 | AGGTCCGC | -0.282
37 | CGATCGCA | 0.0328
38 | GGACCTGA | -0.11
39 | AAAGCTAA | 0.0573
40 | ATGCAGGG | -0.256
41 | CTAGCCAG | -0.132
42 | AAGCACAA | 0.182
43 | CAGCATTA | -0.0545
44 | AATCTCGC | 0.127
45 | AACTTTTG | 0.184
46 | GGCTATAC | -0.0759
47 | CTTCGTAC | -0.175
48 | ACCTAACT | 0.113

Row | Sequence | PBM E-score
49 | GATGTGGA | 0.186
50 | GAATCCGA | 0.0563
51 | AGGTGAAC | -0.128
52 | CTACAAAC | -0.0616
53 | CCTCAACG | -0.221
54 | GACCCCCA | -0.377
55 | ATCATTCC | 0.0188
56 | CAAACATA | 0.0118
57 | ACGTGATC | 0.03
58 | ATGTTCGG | 0.112
59 | AGACCAAA | 0.11
60 | CTATACTA | 0.202
61 | GCAATTAA | 0.0675
62 | AAGGAGAG | -0.237
63 | AAGGACTC | 0.0633
64 | AAACGTAG | -0.0553
65 | AACAGTTG | 0.101
66 | ATTAGCGC | 0.00734
67 | ACCCGCCT | -0.265
68 | ATCCACTC | -0.0464
69 | TCGAGCCA | -0.0839
70 | ACCTTTTG | -0.141
71 | AGTGAGGG | -0.157
72 | CGGAAACG | -0.018

Row | Sequence | PBM E-score
73 | CTCCAGTC | -0.165
74 | ACGGCATA | 0.101
75 | AACGTGTG | -0.0744
76 | ATGCTAAG | -0.00576
77 | AAGAGCCT | -0.171
78 | CTCCAATC | -0.0371
79 | ATATTGTC | 0.427
80 | CAGACACG | 0.147
81 | GCCCAACC | -0.0372
82 | TCTTAAGA | 0.079
83 | CTCGGAGA | 0.016
84 | AAATCGGG | 0.0845
85 | ATATCTAA | 0.133
86 | ACGCTCAC | 0.236
87 | GTCAGATA | 0.0788
88 | CTGATTGC | -0.184
89 | GATACAGC | -0.00967
90 | ATCATAGC | 0.0218
91 | AGAACAGC | -0.151
92 | GAACTACC | 0.013
93 | CTAATCTA | -0.0307
94 | CTGCTGAC | -0.0808
